# According to PubChem BioAssay AID485281 (National Center for Advancing Translational Sciences (NCATS), 2010):
# Among all 350,000 compounds or so, about 260 (0.074%) were called active. This list was built around the results that the source calls inconclusive (neither active nor inactive); the mix of calls is not that of the screen. Calls follow the shape of the dose curve; as a rule, active = well fitted inhibition curve with a large enough effect; inconclusive = small, poorly fitted or top-dose-only effect; inactive = no such curve, though single readings can be large or run the other way. Potencies of inconclusive entries are doubtful fits and often do not repeat.
# Molecular target: Ferritin light chain (Equus caballus) (UniProt P02791)
# Experiment: qHTS Assay for Identification of Novel General Anesthetics; also: nearly all actives have a fitted effect of over 20% in size
# Conditions: apoferritin/1-aminoanthracene competitive binding, fluorescence; activity change, negative = displacement: at 77.5 µM (top of the series)
# Summary of the method: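 Horse-spleen apoferritin (10 uM) was mixed with 50% saturated 1-aminoanthracene in PBS, exposed to compounds for 10 min at room temperature, and read for fluorescence (ex 380 nm, em 535 nm). Competitive displacement was fitted with a four-parameter Hill equation.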
# % is scaled to controls: 0 for no effect and ±100 for the full control effect; potency is read from the fitted curve at half-maximal effect; tags tell the direction and shape of the fitted curve.
# UniProt P02791, sequence (P02791 whole entry, looked up): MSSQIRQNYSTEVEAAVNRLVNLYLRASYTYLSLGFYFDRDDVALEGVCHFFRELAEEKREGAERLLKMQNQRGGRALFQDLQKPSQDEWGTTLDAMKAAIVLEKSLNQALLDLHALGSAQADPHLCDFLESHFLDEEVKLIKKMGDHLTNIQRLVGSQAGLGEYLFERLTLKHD
SMILES,"activity change, negative = displacement",Potency
CCOC(=O)c1ccc(N2C(=O)c3n[nH]c(-c4cccs4)c3C2c2ccc(OC)cc2OC)cc1 (centres undefined),inactive: -14.6%,
O=C(N/N=C/c1ccc(OC(=O)c2ccccc2Cl)cc1)c1cc(O)cc(O)c1,,"inconclusive: 14.1 µM [inhibitor, partial curve]"
Cc1ccccc1Oc1cccc(C(=O)/C(C#N)=C/N(C)C)c1,,"inconclusive: 50.1 µM [inhibitor, single point]"
CCCC(C)C(=O)Nc1nnc(CCc2ccccc2)s1 (centres undefined),,"inconclusive: 14.1 µM [inhibitor, partial curve]"
CC(C)c1ccc(C2=NC(c3ccncc3)=Nc3ccc(F)cc3N2)cc1,,"inconclusive: 35.5 µM [inhibitor, partial curve]"
COc1ccccc1N1C(=O)C2C3C=CC(C3)C2(C)C1=O (centres undefined),,"inconclusive: 25.1 µM [inhibitor, partial curve]"
CC1CCN(C(=O)CSc2nc3ccccc3s2)CC1,,"inconclusive: 28.2 µM [inhibitor, partial curve]"
CC(C)n1c(C(=O)OCC(=O)NCc2ccc3c(c2)OCO3)cc2sccc21,,"inconclusive: 3.55 µM [inhibitor, partial curve]"
Cc1ccc(C(=O)O/N=C(\c2ccccc2)c2ccncc2)cc1,,"inconclusive: 17.8 µM [inhibitor, partial curve]"
CCn1c(N)c(C(=O)NCc2ccc3c(c2)OCO3)sc1=S,,"inconclusive: 31.6 µM [inhibitor, partial curve]"
C=CCOC(=O)/C(=C/c1cccc2ccccc12)NC(=O)c1ccccc1,,"inconclusive: 12.6 µM [inhibitor, partial curve]"
CCOC(=O)N1CCC(NC(=O)c2ccc3c(c2)N(Cc2ccc(Cl)cc2)C(=O)c2ccccc2S3(=O)=O)CC1,inactive: -6.24%,
O=C(Nc1ccc2c(c1)CCC2)c1cc(S(=O)(=O)N2CCN(c3ccccc3)CC2)ccc1Cl,inactive: -7.91%,
CCOC(=O)c1cnn(Cc2cccc(Cl)c2)c1C,inactive: -17.5%,
CCn1cc([N+](=O)[O-])c(C(=O)N2CCCc3ccccc32)n1,,"inconclusive: 35.5 µM [inhibitor, single point]"
CC(C)(C)c1ccc(Cn2cnc(-c3ccc([N+](=O)[O-])cc3)c2)cc1,,"inconclusive: 20 µM [inhibitor, partial curve]"
Cc1ccccc1C(=O)Nc1cccc(C(=O)N/N=C/c2cc(Cl)cc([N+](=O)[O-])c2O)c1,,"inconclusive: 31.6 µM [inhibitor, partial curve]"
Cc1c(C(=O)Nc2cccc(C#N)c2)sc2nc3n(c(=O)c12)CCCCC3,inactive: 55.9%,
O=C(NCc1cccc(C(F)(F)F)c1)c1cc(Cl)ccc1Cl,,"inconclusive: 39.8 µM [inhibitor, single point]"
CCN(CC)c1ccc(/C=N/NS(=O)(=O)c2cccc([N+](=O)[O-])c2)cc1,,"inconclusive: 35.5 µM [inhibitor, single point]"
O=C1Nc2cc(C(=O)N3CCN(c4ccccn4)CC3)ccc2S/C1=C\c1ccccc1,inactive: 13.2%,
CCSc1ccc(-c2ccc(C)cc2)nn1,,"inconclusive: 17.8 µM [inhibitor, partial curve]"
O=C(NCc1cccnc1)c1c(O)c2cccc3c2n(c1=O)CCC3,,"inconclusive: 35.5 µM [inhibitor, partial curve]"

SMILES,"activity change, negative = displacement",Potency
COc1ccc(C2=NN(CC(=O)NCCc3ccccc3)C(=O)CC2)cc1,,"inconclusive: 1 µM [inhibitor, full curve, poor fit]"
O=C1OC2(CCCCC2)OC(=O)C1=CNc1nc2ccccc2s1,,"inconclusive: 44.7 µM [inhibitor, single point]"
CC(=O)Nc1ccc2nc(SCC(=O)Nc3ccc(N4CCOCC4)c(Cl)c3)sc2c1,,"inconclusive: 15.8 µM [inhibitor, partial curve]"
CN(C)CCNC(=O)c1ccc(COc2ccc(Cl)cc2Cl)cc1,,"inconclusive: 22.4 µM [inhibitor, partial curve]"
COC(=O)/C(=C1\OC(=O)C(c2ccccc2)C1=O)c1ccccc1 (centres undefined),inactive: -12.4%,
CC1(C)OC(=O)C(=NNc2ccc(Cl)cc2)C(=O)O1,,"inconclusive: 35.5 µM [inhibitor, single point]"
O=c1c2ccccc2cnn1-c1ccc2ccccc2c1,,"inconclusive: 28.2 µM [inhibitor, partial curve]"
COc1ccc(-n2nc(C(=O)NCC(=O)N3CCCCCC3)c3ccccc3c2=O)cc1,,"inconclusive: 31.6 µM [inhibitor, partial curve]"
NC(=O)c1ccc(N2CCCCCC2)c([N+](=O)[O-])c1,,"inconclusive: 28.2 µM [inhibitor, partial curve]"
CCN(CC)C(=O)Oc1ccc2ccccc2c1Br,,"inconclusive: 14.1 µM [inhibitor, partial curve]"
CCn1c(O)c(/C=C/C=C/C=Nc2ccccc2)sc1=S,inactive: -18.6%,
Clc1ccc(N=c2ssnc2Cl)nc1,inactive: -7%,
CC(C)(C)c1ccc(/C([O-])=C(/C(=S)NCc2ccco2)[n+]2ccccc2)cc1,,"inconclusive: 44.7 µM [inhibitor, partial curve]"
Fc1ccccc1CNc1ccc(Cl)c(Cl)c1,,"inconclusive: 7.08 µM [inhibitor, full curve]"
CC(=O)Nc1ccc(S(=O)(=O)NC2(C(F)(F)F)C(=O)Nc3c2c(=O)[nH]c(=O)n3Cc2ccco2)cc1 (centres undefined),inactive: 1.12%,
O=C(Nc1cccc(S(=O)(=O)NC2=NCCCCC2)c1)c1cc(-c2ccncc2)nc2ccccc12,,"inconclusive: 12.6 µM [inhibitor, partial curve]"
COc1ccc(NC(=O)c2sc3nc(-c4cccnc4)ccc3c2N)cc1,inactive: -12.4%,
COc1cccc(NC(=O)C(=O)NCCc2csc(-c3ccc(C(F)(F)F)cc3)n2)c1,,"inconclusive: 8.91 µM [inhibitor, partial curve]"
N#Cc1nc(Nc2ccccc2)nc(NC2CCCCC2)n1,,"inconclusive: 35.5 µM [inhibitor, partial curve]"
CCCOc1ccc2oc(=O)c3c(c2c1)CCCN3C(=O)CN(C)Cc1ccccc1,,"inconclusive: 10 µM [inhibitor, partial curve]"
CCC(C(=O)c1ccc(O)cc1)c1ccccc1 (centres undefined),,"inconclusive: 12.6 µM [inhibitor, partial curve]"
Cc1ccc(-n2c(SCC(=O)NCc3cccs3)nnc2-c2ccoc2C)cc1,,"inconclusive: 31.6 µM [inhibitor, partial curve]"
CCCc1ccc(OCC(=O)Nc2sc3c(c2C(=O)OC)CCCCC3)cc1,inactive: -5.38%,

SMILES,"activity change, negative = displacement",Potency
COc1ccc(C2CC(O)(c3ccccc3)Oc3c(C)ccc(C(C)C)c32)cc1 (centres undefined),inactive: -0.225%,
Cc1ccc(CNC(=O)CCCN2C(=O)c3cccnc3Oc3ccc(Cl)cc32)cc1,,"inconclusive: 50.1 µM [inhibitor, single point]"
COc1cc2c(-c3ccc(O)cc3)nc3c(c(C)nn3-c3ccccc3)c2cc1OC,inactive: 7.42%,
CS/C(=N\S(=O)(=O)c1cccs1)Nc1cccc(Cl)c1C,,"inconclusive: 50.1 µM [inhibitor, single point]"
Cc1nc(-c2ccccc2)sc1CCNC(=O)C(=O)Nc1ccc2c(c1)OCCO2,,"inconclusive: 3.98 µM [inhibitor, full curve]"
COc1ccc(NC(=O)NCCCN2CCCC2=O)cc1,inactive: 34.9%,
O=C(COC(=O)C12CC3CC(CC(Br)(C3)C1)C2)Nc1cccnc1Cl,,"inconclusive: 12.6 µM [inhibitor, partial curve]"
COc1cccc(/C=C2\SC(=S)N(CCCC(=O)N3CCCCC3CCO)C2=O)c1 (centres undefined),,"inconclusive: 35.5 µM [inhibitor, partial curve]"
Cc1cccc(N(Cc2ccccc2F)S(C)(=O)=O)c1,,"inconclusive: 20 µM [inhibitor, partial curve]"
CCOc1ccc(-c2ccc(SCC)nn2)cc1,inactive: -13%,
Cc1cc(C)cc(-n2nnc(-c3nsc(NC(=O)c4ccccc4Cl)n3)c2C)c1,,"inconclusive: 35.5 µM [inhibitor, single point]"
Cc1ccccc1NC(=O)CC(O)(C(F)(F)F)C(F)(F)F,,"inconclusive: 11.2 µM [inhibitor, single point]"
CCN(Cc1cc(=O)oc2cc(C)ccc12)c1ccccc1,,"inconclusive: 28.2 µM [inhibitor, single point]"
C/C=C/C(=O)[C@@H](C)[C@@H](/C=C/C[Si](C)(C)C)C(C)C,inactive: 3.72%,
O=C(Nc1ccc(C(F)(F)F)cc1)C1CCCN(S(=O)(=O)c2cccc3cccnc23)C1 (centres undefined),,"inconclusive: 4.47 µM [inhibitor, full curve]"
O=C(O)c1cc(-c2ccco2)nc2ccc(Br)cc12,,inactive
COC(=O)C(Cc1ccc(OC(=O)c2ccc(Cl)cc2)cc1)N1Cc2ccccc2C1=O (centres undefined),inactive: -3.25%,
CC12CCC(C/C1=N/OC(=O)c1cccc([N+](=O)[O-])c1)C2(C)C (centres undefined),,"inconclusive: 17.8 µM [inhibitor, partial curve]"
CC(C)=CCc1c(O)c(CC=C(C)C)c2c(c1O)C(=O)CC(c1ccc(O)cc1)O2 (centres undefined),,"inconclusive: 28.2 µM [inhibitor, partial curve]"
CCC1CCCCN1C(=O)CSc1n[nH]c(-c2ccccc2Cl)n1 (centres undefined),,"inconclusive: 22.4 µM [inhibitor, partial curve]"
Cc1ccc(C(=O)C2CCN(CC(=O)Nc3nc(C)cs3)CC2)cc1,inactive: -20.1%,
CC(NS(=O)(=O)OCC(Cl)(Cl)Cl)c1ccc(Br)cc1 (centres undefined),,"inconclusive: 28.2 µM [inhibitor, single point]"
O=C(Cc1ccccc1Cl)N1CCN(c2ncccn2)CC1,inactive: -14.1%,
